According to PubChem BioAssay AID624296 (National Center for Advancing Translational Sciences (NCATS), 2012):
Out of some 350,000 compounds screened, about 9,900 (2.8%) were called active. The shares of active, inactive and inconclusive entries below differ from those in the screen. Calls follow the shape of the dose curve; as a rule, active = well fitted activation curve with a large enough effect; inconclusive = small, poorly fitted or top-dose-only effect; inactive = no such curve, though single readings can be large or run the other way. No potency is given beside an inconclusive call; the fits are too rough.

assay: A quantitative high throughput screen for small molecules that induce DNA re-replication in MCF 10a normal breast cells.; also: nearly all actives have a fitted effect of over 50% in size; as to activity, positive = re-replication: % of control where 0% means no effect; conditions: MCF 10A DNA re-replication, Hoechst nuclear intensity, 48 h; activity, positive = re-replication: at 46.1 µM (top of the series)
Potency is read from the fitted curve at half-maximal effect; tags tell the direction and shape of the fitted curve.

SMILES | Potency | activity, positive = re-replication
COc1ccc(Nc2nc(Cl)nc(NCc3ccco3)n2)c(OC)c1 | inconclusive [activator, single point] | –
O=C(NN=C1c2ccccc2-c2ccccc21)c1ccccc1 | – | inactive: 29.1%
CCCCC(CC)COC(=O)CC(C(=O)OCC(CC)CCCC)S(=O)(=O)O (centres undefined) | inconclusive [activator, partial curve, poor fit] | –
CC1=C(C(=O)OCc2ccccc2)C(/C=C/c2ccccc2)N2C(=O)CCSC2=N1 (centres undefined) | inconclusive [activator, single point] | –
CC1CC(C)CN(c2oc(-c3ccco3)nc2C#N)C1 (centres undefined) | inconclusive [activator, single point] | –
COc1cccc(-c2ccc(NC(=O)C3CCCN(CCCn4nc(C)cc4C)C3)cc2)c1 (centres undefined) | inconclusive [activator, single point] | –
Cc1cccc(C)c1NC(=O)CNC(=O)C(C)N(C)CC(=O)Nc1ccc(F)cc1 (centres undefined) | inconclusive [activator, partial curve, poor fit] | –
CCCCCn1c(Sc2ncccn2)nc2c1c(=O)[nH]c(=O)n2C | – | inactive: -3.19%
COc1cccc(NC(=O)CNC(=O)c2ccc(OC)c(OC)c2)c1 | – | inactive: 1.77%
COc1cccc(/C=N/NC(=O)c2[nH]nc3c2CCc2ccccc2-3)c1 | inconclusive [activator, single point] | –
COC(=O)c1sc(NC(=O)CN2CCN(c3cccc(Cl)c3)CC2)c(C(=O)OC)c1C | – | inactive: 0.905%
CCN1CCN(C(=O)c2ccc(-c3nc4ccccc4s3)s2)CC1 | inconclusive [activator, partial curve, poor fit] | –
C/C(=N\NC(=O)COc1ccc(C)cc1C(C)C)c1ccc(-n2ccnc2)cc1 | inconclusive [activator, single point] | –
O=C(Nc1ccccc1-c1ccccc1)c1ccc(Cl)c([N+](=O)[O-])c1 | active: 9.2 µM | –
O=C(Nc1cccnc1)Nc1ccccc1Cl | – | inactive: -0.551%
COc1ccc(-c2nn(-c3ccccc3)cc2/C=C2/SC(=S)N(CCCC(=O)O)C2=O)c(C)c1 | – | inactive: -14.8%
OCC1(Cc2ccccc2)CCN(Cc2ccc(-c3ccco3)cc2)CC1 | inconclusive [activator, single point] | –
Cc1ccc(S(=O)(=O)Nc2cccc(S(=O)(=O)N3CCCC3)c2)cc1C | inconclusive [activator, partial curve, poor fit] | –
COc1ccccc1CC(=O)NC1CCCc2ccccc21 (centres undefined) | – | inactive: -0.712%
COc1ccccc1OCC(=O)Nc1cccc(-c2nnc(-c3ccco3)o2)c1 | inconclusive [activator, single point] | –
CC1(C)CC[C@]2(C(=O)O)[C@H](O)C[C@]3(C)C(=CCC4[C@@]5(C)C[C@H](O)[C@H](O)[C@@](C)(CO)C5CC[C@]43C)[C@@H]2C1 (some centres undefined) | – | inactive: 10.1%
S=C(Nc1cc(Cl)ccc1Oc1ccccc1)N1CCN(c2ccccn2)CC1 | inconclusive [activator, partial curve, poor fit] | –

SMILES | Potency | activity, positive = re-replication
COc1ccc(NC(=O)c2ccc3[nH]c(C)c(C)c3c2)cc1 | – | inactive: -4.82%
O=C(O)c1ccccc1SC1CC(=O)N(c2ccccc2)C1=O (centres undefined) | inconclusive [activator, single point] | –
Cc1ccc(Cn2c(C(C)Nc3nc(-c4ccc(Cl)c([N+](=O)[O-])c4)cs3)nc3cc(C(F)(F)F)ccc32)cc1 (centres undefined) | – | inactive: -31%
COc1ccc(C2c3[nH]c4ccccc4c3CCN2C(=O)c2cc3ncccn3n2)c(F)c1 (centres undefined) | – | inactive: -42.7%
O=C(Nc1ccccc1C(=O)O)c1ccc(Br)o1 | inconclusive [activator, single point] | –
C(=C1c2ccccc2-c2ccccc21)c1ccncc1 | inconclusive [activator, single point] | –
S=C(c1ccc(N2CCOCC2)cc1)N1CCCCC1 | inconclusive [activator, partial curve] | –
CC1(C)Cc2c(sc3nc(N/N=C/c4ccccc4)[nH]c(=O)c23)CO1 | – | inactive: 12.7%
OCCCn1c(-c2ccccc2)n[nH]c1=S | – | inactive: -1.23%
CC(C)C[C@H](NC(=O)OC(C)(C)C)C(=O)N[C@@H](CO)[C@H](O)[C@@H]1C[C@@H]1C(=O)N1CCCC1 | – | inactive: -3.71%
COc1ccc(NC(=O)c2ccc(-n3cncn3)c([N+](=O)[O-])c2)cc1 | inconclusive [activator, partial curve, poor fit] | –
COC(=O)[C@@H]1CC[C@H](C)[C@@H](c2ccc(C)cc2)N1C(=O)c1ccc(/C=N/OC[C@@H](O)COCc2ccco2)cc1 | inconclusive [activator, single point] | –
C/C(=N\NC(N)=O)C1CC(CC(C)C)C(=O)O1 (centres undefined) | inconclusive [activator, single point] | –
O=C(c1ccc(Oc2ccccc2)cc1)c1nc2c(n1O)CCCC2 | inconclusive [activator, single point] | –
OCCN1CCN(CC(O)COc2ccc3ccccc3c2)CC1 (centres undefined) | inconclusive [activator, full curve, poor fit] | –
O=C(O)c1cc(O)ccc1NC(=O)C1CCCO1 (centres undefined) | – | inactive: 1.85%
CCc1ccc(S(=O)(=O)N2CCN(Cc3ccco3)CC2)cc1 | inconclusive [activator, partial curve, poor fit] | –
CC1Cc2cc(S(=O)(=O)NCCc3ccccc3)ccc2N1C(=O)C1CC1 (centres undefined) | inconclusive [activator, partial curve, poor fit] | –
Clc1ccc(Cl)c(-c2nn3c(Cn4cnc5ccccc54)nnc3s2)c1 | inconclusive [activator, single point] | –
COc1ccc(Br)cc1[C@H]1[C@H]2C=CC[C@@H](C)[C@@H]2C(=O)N1Cc1ccccc1 | inconclusive [activator, single point] | –
COc1ccccc1NS(=O)(=O)c1ccc(C)c(NC(=O)NC2CCCCC2)c1 | – | inactive: 0.185%
CCCOc1cccc(C(=O)NCCNC(=O)c2ccco2)c1 | – | inactive: -1.76%
